# Source: the supplement of paper PMC10037445
# “And” between values parts separate entries of the source, which are not always exact repeats. Identical values can stand only once. In all, about 2,900 compounds were measured (“IRF Lucia reporter activity, fold change vs agonist alone”: median about 0.9, highest 2% from about 2.8 on). This is one part of the list.
# Tests used:
# [1] = test system: RAW-Dual; test: IRF Lucia reporter activity, fold change vs agonist alone; higher = enhanced IRF activity; settings: library stock concentration (final ~1000-fold dilution): 10 mM, agonist: MPLA (TLR4) […]
# In short: (§1)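 After 50 nL of library stock was delivered by pin tool to RAW-Dual macrophages (50,000 cells/well, DMEM, 384-well plates), a PRR agonist was added 1 h later and the plates were kept at 37 °C, 5% CO2. Twenty hours later, IRF was read from supernatant by QuantiLuc luminescence and NF-κB by QuantiBlue absorbance at 620 nm. Reporter activity is stated as fold change over agonist-alone wells. Wells with IncuCyte confluency under 70% of agonist controls in both mask sets were counted as cytotoxic.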
# [2] = test system: RAW-Dual; test: IRF Lucia reporter activity, fold change vs agonist alone; cytotoxicity flag (confluency mask): not cytotoxic; higher = enhanced IRF activity
# In short: as §1
# [3] = test system: RAW-Dual; test: IRF Lucia reporter activity, fold change vs agonist alone; cytotoxicity flag (confluency mask): cytotoxic (confluency <70% of control); higher = enhanced IRF activity
# In short: as §1
# [4] = agonist: 3'3'-cGAMP (STING) 10 ug/mL
# [5] = cytotoxicity flag (confluency mask): not cytotoxic
compound,measurement,setting,value
COc1ccc(NS(=O)(=O)c2sc3ccc(Cl)cc3c2C)cc1N1CCNCC1,IRF Lucia reporter activity,[1]; cytotoxicity flag (confluency mask): cytotoxic (confluency <70% of control),1.15
COc1ccc2c(c1O)-c1c(O)c(OC)cc3c1C(C2)[N+](C)(C)CC3 (stereo unspecified) (library stock concentration (final ~1000-fold dilution): 10 mM),IRF Lucia reporter activity,[2]; [4],1.06 and 0.922
same,IRF Lucia reporter activity,[2]; agonist: LPS (TLR4) 0.1 ug/mL,0.863 and 0.964
N#CC1CC2CC2N1C(=O)C(N)C12CC3CC(CC(O)(C3)C1)C2.O (stereo unspecified) (library stock concentration (final ~1000-fold dilution): 10 mM),IRF Lucia reporter activity,[2]; [4],0.85
same,IRF Lucia reporter activity,[2]; agonist: LPS (TLR4) 0.1 ug/mL,0.935
N#CC1CC2CC2N1C(=O)C(N)C12CC3CC(CC(O)(C3)C1)C2.O (stereo unspecified),IRF Lucia reporter activity,[1]; [5],0.817
CC1CNc2c(cccc2S(=O)(=O)NC(CCCNC(=N)N)C(=O)N2CCC(C)CC2C(=O)O)C1 (stereo unspecified),IRF Lucia reporter activity,[1]; [5],0.948
CC1CNc2c(cccc2S(=O)(=O)NC(CCCNC(=N)N)C(=O)N2CCC(C)CC2C(=O)O)C1 (stereo unspecified) (library stock concentration (final ~1000-fold dilution): 10 mM),IRF Lucia reporter activity,[2]; [4],1.01
same,IRF Lucia reporter activity,[2]; agonist: LPS (TLR4) 0.1 ug/mL,0.919
COc1cc(OC2CCN(C)CC2)ccc1Nc1ncc2c(n1)n(C1CCCC1)c(=O)n2C,IRF Lucia reporter activity,[1]; [5],0.647
COc1cc(OC2CCN(C)CC2)ccc1Nc1ncc2c(n1)n(C1CCCC1)c(=O)n2C (library stock concentration (final ~1000-fold dilution): 10 mM),IRF Lucia reporter activity,[2]; [4],0.696
same,IRF Lucia reporter activity,[2]; agonist: LPS (TLR4) 0.1 ug/mL,0.362
CC(C)[N+](C)(CCOC(=O)C1c2ccccc2Oc2ccccc21)C(C)C (library stock concentration (final ~1000-fold dilution): 10 mM),IRF Lucia reporter activity,[2]; [4],1.06
same,IRF Lucia reporter activity,[2]; agonist: LPS (TLR4) 0.1 ug/mL,1.25
CC(C)[N+](C)(CCOC(=O)C1c2ccccc2Oc2ccccc21)C(C)C,IRF Lucia reporter activity,[1]; [5],1.04
CC(C)=CCC/C(C)=C/CC/C(C)=C/CC/C=C(\C)CC/C=C(\C)CCC=C(C)C (library stock concentration (final ~1000-fold dilution): 10 mM),IRF Lucia reporter activity,[2]; [4],1.02
same,IRF Lucia reporter activity,[2]; agonist: LPS (TLR4) 0.1 ug/mL,1.04
COc1cc2c(Oc3ccc(NC(=O)C4(C(=O)Nc5ccc(F)cc5)CC4)cc3F)ccnc2cc1OCCCN1CCOCC1 (library stock concentration (final ~1000-fold dilution): 10 mM),IRF Lucia reporter activity,[2]; [4],0.016
same,IRF Lucia reporter activity,[2]; agonist: LPS (TLR4) 0.1 ug/mL,0.0481
COc1cc2c(Oc3ccc(NC(=O)C4(C(=O)Nc5ccc(F)cc5)CC4)cc3F)ccnc2cc1OCCCN1CCOCC1,IRF Lucia reporter activity,[1]; [5],0.0626
CC(=O)c1ccc2c(c1)c1cc(C(C)=O)ccc1n2CCNC(C)C (library stock concentration (final ~1000-fold dilution): 10 mM),IRF Lucia reporter activity,[3]; [4],0.0136
same,IRF Lucia reporter activity,[3]; agonist: LPS (TLR4) 0.1 ug/mL,0.0204
COc1cc(N2CCC(N(C)C)CC2)ccc1Nc1ncc(Cl)c(Nc2ccccc2P(C)(C)=O)n1 (library stock concentration (final ~1000-fold dilution): 10 mM),IRF Lucia reporter activity,[2]; [4],0.218
same,IRF Lucia reporter activity,[2]; agonist: LPS (TLR4) 0.1 ug/mL,0.111
COc1cc(N2CCC(N(C)C)CC2)ccc1Nc1ncc(Cl)c(Nc2ccccc2P(C)(C)=O)n1,IRF Lucia reporter activity,[1]; [5],0.484
Cl.Clc1ccc2nsnc2c1NC1=NCCN1 (library stock concentration (final ~1000-fold dilution): 10 mM),IRF Lucia reporter activity,[2]; [4],0.945
same,IRF Lucia reporter activity,[2]; agonist: LPS (TLR4) 0.1 ug/mL,1.05
Cl.Clc1ccc2nsnc2c1NC1=NCCN1,IRF Lucia reporter activity,[1]; [5],0.746
Nc1ccccc1S(N)(=O)=O,IRF Lucia reporter activity,[1]; [5],1
Nc1ccccc1S(N)(=O)=O (library stock concentration (final ~1000-fold dilution): 10 mM),IRF Lucia reporter activity,[2]; [4],1.06
same,IRF Lucia reporter activity,[2]; agonist: LPS (TLR4) 0.1 ug/mL,0.92
CNC(C)C(=O)NC(C(=O)N1CCCC1C(=O)Nc1snnc1-c1ccccc1)C1CCCCC1 (stereo unspecified),IRF Lucia reporter activity,[1]; [5],0.481
CNC(C)C(=O)NC(C(=O)N1CCCC1C(=O)Nc1snnc1-c1ccccc1)C1CCCCC1 (stereo unspecified) (library stock concentration (final ~1000-fold dilution): 10 mM),IRF Lucia reporter activity,[2]; [4],0.622
same,IRF Lucia reporter activity,[2]; agonist: LPS (TLR4) 0.1 ug/mL,0.38
N#C/C(=C\c1cn(-c2ccccc2)c2ccccc12)C(=O)O,IRF Lucia reporter activity,[1]; [5],0.957
N#C/C(=C\c1cn(-c2ccccc2)c2ccccc12)C(=O)O (library stock concentration (final ~1000-fold dilution): 10 mM),IRF Lucia reporter activity,[2]; [4],0.901
same,IRF Lucia reporter activity,[2]; agonist: LPS (TLR4) 0.1 ug/mL,1.26
Brc1ccc(C2CN3CCSC3=N2)cc1.O=C(O)C(=O)O (stereo unspecified),IRF Lucia reporter activity,[1]; [5],1.03
Brc1ccc(C2CN3CCSC3=N2)cc1.O=C(O)C(=O)O (stereo unspecified) (library stock concentration (final ~1000-fold dilution): 10 mM),IRF Lucia reporter activity,[2]; [4],1.03
same,IRF Lucia reporter activity,[2]; agonist: LPS (TLR4) 0.1 ug/mL,0.728
CCN(CC)CCNC(=O)c1cc(Cl)c(N)cc1OC (library stock concentration (final ~1000-fold dilution): 10 mM),IRF Lucia reporter activity,[2]; [4],0.982
same,IRF Lucia reporter activity,[2]; agonist: LPS (TLR4) 0.1 ug/mL,1.09
CCN(CC)CCNC(=O)c1cc(Cl)c(N)cc1OC,IRF Lucia reporter activity,[1]; [5],0.96
CC(C)c1nc(CN(C)C(=O)NC(CCN2CCOCC2)C(=O)NC(CCC(Cc2ccccc2)NC(=O)OCc2cncs2)Cc2ccccc2)cs1 (stereo unspecified),IRF Lucia reporter activity,[1]; [5],0.99
CC(C)c1nc(CN(C)C(=O)NC(CCN2CCOCC2)C(=O)NC(CCC(Cc2ccccc2)NC(=O)OCc2cncs2)Cc2ccccc2)cs1 (stereo unspecified) (library stock concentration (final ~1000-fold dilution): 10 mM),IRF Lucia reporter activity,[2]; [4],0.572
same,IRF Lucia reporter activity,[2]; agonist: LPS (TLR4) 0.1 ug/mL,0.956
